Measurements from article PMC4336329 (PLoS ONE, 2015).
Hit rate of the full screen: of about 310,000 compounds, about 14,000 (4.5%) showed an effect of 50% or more. The effect is printed as a negative number. Some of the results follow.

target: human ether-à-go-go-related gene (hERG) potassium channel (human, UniProt Q12809); assay: primary screen, population patch clamp on CHO cells stably expressing hERG
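Also: peak tail current of the secondary pulse compared with the same well before compound.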

Chain of human ether-à-go-go-related gene (hERG) potassium channel (Q12809 whole entry, looked up): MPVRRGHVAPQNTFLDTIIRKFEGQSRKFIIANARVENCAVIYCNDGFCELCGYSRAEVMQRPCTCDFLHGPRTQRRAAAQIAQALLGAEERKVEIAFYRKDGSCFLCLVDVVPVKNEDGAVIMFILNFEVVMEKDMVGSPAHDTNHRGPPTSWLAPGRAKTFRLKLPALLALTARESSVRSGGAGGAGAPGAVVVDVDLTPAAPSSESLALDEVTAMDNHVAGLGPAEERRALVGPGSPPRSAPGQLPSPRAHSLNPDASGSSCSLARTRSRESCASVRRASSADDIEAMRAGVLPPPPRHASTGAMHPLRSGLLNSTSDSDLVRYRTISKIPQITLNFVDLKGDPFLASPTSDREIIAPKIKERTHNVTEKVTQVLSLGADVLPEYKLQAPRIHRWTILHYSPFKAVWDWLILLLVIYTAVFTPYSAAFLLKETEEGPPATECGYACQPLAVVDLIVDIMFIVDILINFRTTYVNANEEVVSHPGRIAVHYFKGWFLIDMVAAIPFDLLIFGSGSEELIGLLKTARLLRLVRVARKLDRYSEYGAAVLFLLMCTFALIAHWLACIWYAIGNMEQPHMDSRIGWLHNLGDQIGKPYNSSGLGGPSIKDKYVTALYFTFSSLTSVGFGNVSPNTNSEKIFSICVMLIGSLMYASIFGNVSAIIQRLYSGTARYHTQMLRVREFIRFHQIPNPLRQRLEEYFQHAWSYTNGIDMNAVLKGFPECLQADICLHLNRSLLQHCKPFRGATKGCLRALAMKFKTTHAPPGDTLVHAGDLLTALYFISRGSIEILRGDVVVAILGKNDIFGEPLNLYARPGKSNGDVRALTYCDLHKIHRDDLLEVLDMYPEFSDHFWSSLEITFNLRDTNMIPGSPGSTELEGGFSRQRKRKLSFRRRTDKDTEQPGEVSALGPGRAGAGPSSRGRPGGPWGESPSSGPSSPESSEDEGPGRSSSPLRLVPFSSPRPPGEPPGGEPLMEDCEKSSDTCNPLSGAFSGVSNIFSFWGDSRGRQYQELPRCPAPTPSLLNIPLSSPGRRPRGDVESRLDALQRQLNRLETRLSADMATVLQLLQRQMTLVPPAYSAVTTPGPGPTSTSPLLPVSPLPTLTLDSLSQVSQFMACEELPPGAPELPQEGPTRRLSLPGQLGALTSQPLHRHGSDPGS

Row | SMILES | hERG current change (%, negative = inhibition) at 10uM [%]
1 | COCc1cc(=O)[nH]c2cc(NC(=O)C3CC3)c(C)cc12 | 18.7
2 | Nc1cncc(C(=O)O)c1 [26671297] | 4.06
3 | Cc1nc(C(=O)Nc2cc(F)cc(Cl)c2)sc1C1(C)CC(c2ccccc2)=NO1 (stereo not shown) | 1.4
4 | O=C(CSc1nnc(Nc2ccccc2F)s1)NC(=O)CN1CCCC1=O | 2.75
5 | Cc1nnc(SCC(=O)Nc2sccc2C(N)=O)s1 | -4.23
6 | CC(C)C(=O)Nc1ccc(C(=O)NNC(=O)NC2CCCCC2)cc1 | 19.2
7 | CC(=O)Oc1ccc(Cl)cc1/C=C/c1cc(OC(C)=O)c2ccccc2n1 | 18.4
8 | Cc1ccccc1NS(=O)(=O)CCCCC(Cl)(Cl)Cl | 17.5
9 | CCC(C)(C)n1nnnc1C(c1ccc(OC)cc1)N1CCN(C(=O)c2ccco2)CC1 (stereo not shown) | -41.6
10 | Cc1cc(C)n(-c2ccc(C(=O)OCc3ccccc3)cc2)n1 | 21.2
11 | CSc1nc(N)nc(N(C)C)n1 | 11
12 | COc1ccc(NC(=O)c2cc(S(=O)(=O)N(C)C)ccc2N2CCCC2)cc1Cl | 12.7
13 | CCCCSc1nc(O)c(C2OC(=O)c3c2ccc(OC)c3OC)c(=O)n1C (stereo not shown) | -4.31
14 | COc1ccc(NC(=O)Cn2ccc3c(OC)cccc3c2=O)cc1 | 9.88
15 | CCOC(=O)c1c(C)[nH]c(C(=O)NCc2ccco2)c1C | 2.76
16 | CC1(C)Cc2nc(-c3ccccc3)nc(SCC(O)CO)c2CO1 (stereo not shown) | -15.8
17 | OCC1(CCc2ccccc2)CCN(Cc2cc(F)ccc2-n2cccn2)CC1 | -78.1
18 | C=CCOc1ccc(/C=N/NC(=O)CN2CCCCC2)cc1OC | -61
19 | COc1ccc(CN(C(=O)/C=C/c2ccco2)C2CCS(=O)(=O)C2)cc1 (stereo not shown) | 6.94
20 | CC(C(=O)NC(N)=O)N1C(=O)NC(c2ccccc2)(c2ccccc2)C1=O (stereo not shown) | -14.9

Row | SMILES | hERG current change (%, negative = inhibition) at 10uM [%]
21 | CCOc1ccccc1Nc1nnc(SCC(=O)NC(Cc2c[nH]c3ccccc23)C(=O)O)s1 (stereo not shown) | 23.3
22 | OCC1(CCCc2ccccc2)CCN(Cc2cnc(N3CCOCC3)s2)CC1 | -58.3
23 | CN1CCN(c2ccccc2NC(=O)c2ccc(F)cc2)CC1 | -40.7
24 | CCCCc1nc2ccccc2c(=O)n1-c1ccccc1O | 18
25 | Cc1ccc2sc(-c3ccc(NC(=O)c4cc(-n5cnnc5)ccc4Cl)cc3)nc2c1 | 6.22
26 | Cn1cc(C(=O)c2ccc(Cl)cc2Cl)cc1C=O | -15.4
27 | Cc1c(NC(=O)CN2CCCc3ccccc32)c(=O)n(-c2ccccc2)n1C | -0.4
28 | Cc1ccc2c(c1)C(=O)CC(O)(C(F)(F)F)O2 (stereo not shown) | 17.1
29 | CCCn1nnc2c(=O)oc3ccccc3c21 | 3.77
30 | CCOCC(=O)Nc1nnc(Cc2ccc(OC)cc2)s1 | 11.4
31 | CC(Sc1ccc(Cl)cc1)C(=O)NCC(c1ccco1)N1CCCCC1 (stereo not shown) | -54.1
32 | CCCC(=O)Nc1ccc(Cl)c(NC(=O)c2ccco2)c1 | -10.5
33 | O=C1CCCN1CCC1CCCCN1Cc1nc(COc2ccccc2)no1 (stereo not shown) | 16.5
34 | Cn1cccc1C(=O)NCc1ccc(S(N)(=O)=O)cc1 | 14
35 | Cc1ccc(CN2C3CCCC2CC(NC(=O)c2ccc(F)cc2)C3)cc1 (stereo not shown) | -74.1
36 | CC(=O)O/N=C/c1c(Cl)n(C)c2ccccc12 | -2.65
37 | COc1ccc(OC)c(CN2C(=O)CCC2(C)C(=O)NC2CCCCCC2)c1 (stereo not shown) | -19.7
38 | Cc1onc(-c2ccccc2)c1C(=O)Nc1nnc(N2CCCCCC2)s1 | -22.2
39 | Cc1nnc(NC(=O)c2ccc3c(c2)C(=O)N(CC2CCCO2)C3=O)s1 (stereo not shown) | -16.2
40 | CCn1cc(C(=O)NCc2ccc3c(c2)OCO3)c2cc(OC)c(OC)cc2c1=O | 2.11

Row | SMILES | hERG current change (%, negative = inhibition) at 10uM [%]
41 | NS(=O)(=O)c1ccc(NC(=O)CN2C(=O)C3C4C=CC(C4)C3C2=O)cc1 (stereo not shown) | 17.6
42 | Cn1c(SCC(=O)NCc2cccs2)nnc1-c1cccs1 | -23.6
43 | CCOc1ccc(CCNC(=O)CN(C)S(=O)(=O)c2cccs2)cc1OCC | 10.2
44 | CCCCc1ccc(NC2=NCCCS2)cc1 | -35.9
45 | Cn1c(N)c(C(=O)COC(=O)CC2CC3CCC2C3)c(=O)n(C)c1=O (stereo not shown) | -64.4
46 | O=C(CSc1ccc2nc(-c3ccccc3)cn2n1)NCC1CCCO1 (stereo not shown) | -18
47 | C=CCn1cc(/C=N/NC(=O)COc2cccc3cccnc23)c2ccccc21 | 9.18
48 | CCn1c(O)c(N=Nc2ccc3ccccc3n2)c2ccccc21 | 3.85
49 | CCOC(=O)N1CCN(Cc2ccccc2Cl)CC1 | 5.87
50 | NC1=NC(=O)/C(=C/c2cn(CCC(=O)O)nc2-c2ccc(F)cc2)S1 | -1.99
51 | COc1cccc(CNC(=O)CCNC(=O)C2CCN(S(=O)(=O)c3ccc(F)cc3)CC2)c1 | -10.2
52 | CCOc1cc(/C=C2\SC(=Nc3ccccc3)N(c3ccccc3)C2=O)ccc1OCC(=O)O | -17.9
53 | COc1ccc(NC(=O)CSc2nc3ccccc3c(=O)n2CCNC(C)=O)c(OC)c1 | -25.1
54 | COc1ccc(N(C(=O)c2cc3ccccc3oc2=O)C2C=CS(=O)(=O)C2)cc1 (stereo not shown) | 8.03
55 | COC(=O)NNC(=O)c1ccccc1C | -11.7
56 | COC(=O)c1cc(S(=O)(=O)NCCc2ccccc2)c[nH]1 | 5.93
57 | Cc1cc(C)n(-c2ccc(NC(=O)C3CCCCN3C(=O)c3cccs3)cc2)n1 (stereo not shown) | -21.3
58 | CCn1cc(C(=O)OCC(=O)c2ccc(Cl)cc2)c(=O)c2ccc(C)nc21 | -46.6
